About 300 (0.091%) of roughly 330,000 compounds were called active. This list was built around the results that the source calls inconclusive (neither active nor inactive); the mix of calls is not that of the screen. Calls come from the whole dose curve; as a rule, active = well fitted inhibition curve with a large enough effect; inconclusive = small, poorly fitted or top-dose-only effect, or effect the other way, or another doubt; inactive = no such curve, though single readings can be large or run the other way. Potencies of inconclusive entries are left out as doubtful fits.
The compounds below were run against Lysosomal acid glucosylceramidase (Homo sapiens) (UniProt P04062) (assay: qHTS Assay for Inhibitors and Activators of N370S glucocerebrosidase as a Potential Chaperone Treatment of Gaucher Disease). Conditions: N370S GC spleen homogenate, 4MU-glucoside fluorescence; activity change, negative = inhibition: at 59.4 µM (top of the series) unless noted.
With CCOc1ccccc1NC(=O)CN(c1ccc(C)cc1)S(=O)(=O)c1c(C)n[nH]c1C the Potency was inconclusive [activator, partial curve]. In the case of CN(C)c1ccc(/C=N\Nc2ccccn2)cc1, the “activity change, negative = inhibition” value is reported as inactive: -0.913%. In the case of COc1ccc(/C=N/NC(=O)CN(CCc2ccccc2)S(=O)(=O)c2ccc(NC(C)=O)cc2)cc1OC, the Potency is reported as inconclusive [inhibitor, partial curve]. For COc1ccc(-c2cc(C(F)(F)F)n3ncc(C(=O)N4CCc5ccccc5C4)c3n2)cc1, the Potency was inconclusive [activator, single point]. In the case of COc1cccc(C(=O)Nc2ccc(NC(=O)C3CCCCC3)nc2)c1, the Potency is reported as inconclusive [inhibitor, partial curve, poor fit]. In the case of O=C(NCCN1CCOCC1)c1cccc(NS(=O)(=O)c2ccc(Br)cc2)c1, the Potency is reported as inconclusive [inhibitor, partial curve]. CCCCc1c(O)nc(SCC(=O)Nc2ccc3c(c2)CCC3)[nH]c1=O was tested, and the Potency was inconclusive [activator, partial curve]. In the case of O=C(Nc1ccccc1)C1=C(O)CC(c2ccc(Cl)cc2)N2CCN=C12 (stereo not given), the Potency is reported as inconclusive [activator, full curve]. N=c1oc2cc(O)ccc2cc1C(=O)Nc1ccc(Cl)cc1 was tested, and the Potency was inconclusive [activator, partial curve]. O=C(c1ccccc1)c1ccc(OCCOCCN2CCN(Cc3ccccc3)CC2)cc1 was tested, and the Potency was active: 14.1 µM. In the case of COc1ccc(-n2nc3c(N4CCC(C(=O)NCc5ccco5)CC4)nnc(C)c3c2C)cc1, the Potency is reported as inconclusive [inhibitor, full curve]. With COc1ccc(S(=O)(=O)N2CCN(C(=S)Nc3ccc(S(N)(=O)=O)cc3)CC2)cc1 the “activity change, negative = inhibition” value was inactive: -15.2%. For O=C(COC(=O)c1n[nH]c(=O)c2ccccc12)c1ccccc1, the Potency was inconclusive [inhibitor, partial curve]. With CCC(=O)OCC(=O)[C@@]1(OC(=O)CC)[C@@H](C)C[C@@H]2[C@H]3CCC4=CC(=O)C=C[C@]4(C)[C@@]3(F)[C@@H](O)C[C@@]21C the “activity change, negative = inhibition” value was inactive: 29.1%. In the case of O=C(CN1C(=O)c2ccccc2C1=O)NCCc1c[nH]c2ccc(Cl)cc12, the “activity change, negative = inhibition” value is reported as inactive: -3.69%. For O=C(C1CCCN(Cc2ccc([N+](=O)[O-])cc2)C1)N1CCCCC1 (stereo not given), the “activity change, negative = inhibition” value was inactive: 4.53%. O=C1CC(c2ccccc2O)Oc2ccc(O)cc21 (stereo not given) was tested, and the “activity change, negative = inhibition” value was inactive: -4.54%. In the case of CCOC(=O)c1cc(CC)sc1NC(=O)Cc1ccsc1, the Potency is reported as inconclusive [activator, single point]. Cn1c(SCc2ccccc2)nnc1-c1ccc(O)cc1 was tested, and the Potency was inconclusive [inhibitor, full curve]. In the case of O=C(Cc1ccc(S(=O)(=O)N2CCOCC2)s1)Nc1cc(C(F)(F)F)ccc1N1CCCC1, the “activity change, negative = inhibition” value is reported as inactive: 5.14%. CCCCN(C)Cc1cc(=O)oc2cc3c(cc12)CCCC3 was tested, and the “activity change, negative = inhibition” value was inactive: -4.9%. With Cc1ccc(C)c(N2C(=N)S/C(=C\c3ccc(-c4ccccc4C(=O)O)o3)C2=O)c1 the “activity change, negative = inhibition” value was inactive: -9.52%. In the case of CCCCN(CCCC)Cc1ccc(C(=O)NNC(=O)Nc2ccc(Cl)cc2)o1, the Potency is reported as inconclusive [inhibitor, partial curve]. In the case of COc1ccc(C2C3=C(CC(C)(C)CC3=O)Oc3ncn(CC(C)C)c(=N)c32)cc1 (stereo not given), the Potency is reported as inconclusive [activator, single point]. In the case of Cc1cnc(C(=O)OCC(=O)C23CC4CC(CC(C4)C2)C3)cn1, the “activity change, negative = inhibition” value is reported as inactive: -10.2%. With Cc1ccc(S(=O)(=O)N(C(=O)c2ccncc2)c2ccc(OC(=O)c3ccncc3)cc2)cc1 the Potency was inconclusive [inhibitor, partial curve, poor fit]. With COc1ccc(C(=O)Oc2ccc3ccc(=O)oc3c2)cc1 the Potency was inconclusive [activator, full curve]. With COc1ccc(-c2ccnc3nc(-n4cccc4)nn23)cc1 the “activity change, negative = inhibition” value was inactive: 12.3%. For Cc1c(C)c2ccc(O[C@@H]3O[C@H](CO)[C@H](O)[C@H](O)[C@H]3O)cc2oc1=O, the Potency was inconclusive [activator, partial curve]. In the case of CCN(CCCNC(=O)C1CCCN(S(=O)(=O)CC)C1)c1cccc(C)c1 (stereo not given), the Potency is reported as inconclusive [inhibitor, full curve, poor fit]. In the case of C/C(=C\C(=O)c1ccccc1)Nc1ccc2c(c1)OCO2, the “activity change, negative = inhibition” value is reported as inactive: -10.4%. O=C(/C=C/c1ccccc1Cl)NCCc1ccccc1 was tested, and the “activity change, negative = inhibition” value was inactive: -4.39%. With CCN(C(=O)COC(=O)c1c(C)nn(-c2ccccc2)c1C)C1CCS(=O)(=O)C1 (stereo not given) the “activity change, negative = inhibition” value was inactive: -0.968%. With CCOP(=O)(OCC)C(NC(=O)Nc1ccccc1)c1ccccc1 (stereo not given) the “activity change, negative = inhibition” value was inactive: 3.67%. Cc1ccc(C)c(SCC(=O)NC(=O)NCc2ccccc2)c1 was tested, and the Potency was inconclusive [activator, partial curve]. COc1ccccc1-c1nnc(NC(=O)C(C)Sc2nncn2C)s1 (stereo not given) was tested, and the “activity change, negative = inhibition” value was inactive: 3.28%. For O=C(Nc1ccccc1)c1c(F)cccc1F, the “activity change, negative = inhibition” value was inactive: -25.9%. In the case of COc1ccc(NC(=O)C2CCCN2S(=O)(=O)c2ccc3c(c2)CCC(=O)N3)cc1Cl (stereo not given), the Potency is reported as inconclusive [inhibitor, partial curve]. In the case of COc1ccc(Cl)cc1C(=O)NCCCSc1ccccc1, the Potency is reported as inconclusive [activator, single point]. For O=C(OC(c1ccccc1)c1nccc2ccccc12)c1cccc([N+](=O)[O-])c1 (stereo not given), the Potency was inconclusive [activator, single point]. In the case of COc1cc(CNCCSc2nnnn2C)cc(Br)c1OCc1ccc(F)cc1, the Potency is reported as inconclusive [inhibitor, partial curve]. In the case of CC(C(=O)O)N1C(=O)/C(=C/c2cccn2C)SC1=S (stereo not given), the Potency is reported as inconclusive [inhibitor, single point]. CCCC(=O)Nc1ccccc1Sc1ncnc2scc(-c3ccccc3)c12 was tested, and the Potency was inconclusive [inhibitor, partial curve, poor fit]. With O=C(c1cccc(Cl)c1)N1CCN(c2ncnc3c2cnn3-c2ccccc2)CC1 the Potency was inconclusive [inhibitor, single point]. O=C(c1ccc(S(=O)(=O)c2ccccc2Cl)c([N+](=O)[O-])c1)N1CCCCCC1 was tested, and the Potency was inconclusive [inhibitor, partial curve]. For COc1ccc(C(c2c(NC(C)=O)sc3c2CCCC3)N2CCN(CCO)CC2)cc1OC (stereo not given), the Potency was active: 14.1 µM. COC(=O)C1(Cc2ccccc2)C=C2C(=C(C)C(=O)C2C)CN1 (stereo not given) was tested, and the “activity change, negative = inhibition” value was inactive: -2.63%. CCOc1ccc(NS(=O)(=O)c2ccc(-c3cnc(C4CC4)o3)cc2)cc1 was tested, and the Potency was inconclusive [inhibitor, single point]. For OC(COC(c1ccc(Cl)cc1)c1ccc(Cl)cc1)CN1CCN(c2ccccn2)CC1 (stereo not given), the Potency was inconclusive [inhibitor, single point]. For CCNC(=S)NNC(=O)CCc1nc2cc(Cl)ccc2n(Cc2ccccc2)c1=O, the Potency was inconclusive [activator, single point]. CN1CCN(CCOC2Cc3ccccc3Sc3ccc(Cl)cc32)CC1 (stereo not given) was tested, and the Potency was inconclusive [inhibitor, single point]. For Nc1nc(-c2ccccc2)cs1, the Potency was inconclusive [inhibitor, partial curve]. For O=C(NCCC(=O)N1CCCCC1)c1ccc(Br)cc1, the Potency was inconclusive [inhibitor, partial curve, poor fit]. For CCCCCCCCCCC(C)=O, the “activity change, negative = inhibition” value was inactive: -2.95%. For O=C(NCc1ccc(Cl)cc1)c1ccc2ccccc2n1, the Potency was inconclusive [activator, single point]. In the case of Cc1ccc(-c2csc3ncnc(NCCN4CCOCC4)c23)cc1, the Potency is reported as inconclusive [inhibitor, full curve, poor fit]. For COc1cccc(NC2c3ccccc3C(=O)N2Cc2ccccc2Cl)c1 (stereo not given), the Potency was inconclusive [activator, partial curve]. With CC(C)(C)C(=O)Nc1nnc(CCc2ccccc2)s1 the “activity change, negative = inhibition” value was inactive: 12.7%. For CCOc1ccc(N(CC(=O)Nc2cc(C)ccc2C)S(=O)(=O)c2c(C)[nH]c(=O)[nH]c2=O)cc1, the Potency was inconclusive [inhibitor, partial curve]. CCCCC(=O)NN(C)c1nc(-c2ccccc2)nnc1C(F)(F)F was tested, and the activity change, negative = inhibition was inconclusive: 40.7% [activator]. In the case of Cc1cccc(NC(=O)CSc2ccc(-c3cccnc3)nn2)c1, the Potency is reported as inconclusive [activator, single point]. In the case of CCOC(=O)C1=C(C)NC(C)=C(C(=O)OCC)C1/C=C/c1ccccc1OC, the Potency is reported as inconclusive [activator, partial curve]. N#Cc1cc(C#N)c(N2CCN(c3cccc(Cl)n3)CC2)nc1N was tested, and the “activity change, negative = inhibition” value was inactive: 7.61%. CCOc1ccc(-c2n[nH]c(C)c2Oc2ccccc2OC)c(O)c1 was tested, and the activity change, negative = inhibition was inconclusive: 34.4% [activator]. With C=CCn1c(=O)c(C#N)cc2c(=O)n3ccccc3nc21 the Potency was inconclusive [activator, partial curve]. In the case of CCCCCCNC(=O)c1c(O)c2ccccc2[nH]c1=O, the Potency is reported as inconclusive [activator, partial curve, poor fit]. In the case of Cc1ccccc1OCC(=O)Nc1ccccc1-c1ccccc1NC(=O)COc1ccccc1C, the Potency is reported as inconclusive [activator, partial curve]. In the case of CC1CC=CC2C1C(=O)N(Cc1ccccc1)C2c1ccc2ccccc2c1Br (stereo not given), the “activity change, negative = inhibition” value is reported as inactive: 5.33%. In the case of CC1CCCCC1NC(=O)c1ccco1 (stereo not given), the Potency is reported as inconclusive [activator, single point]. For CCCCn1c(=O)[nH]c(=O)c2c1nc(-c1ccsc1)n2Cc1ccccc1, the Potency was inconclusive [activator, partial curve].
Potency is the fitted concentration of half-maximal effect.
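Throughout, for activity change, negative = inhibition: 0% = full enzyme activity and -100% = no enzyme basal.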
